# In PubChem BioAssay AID463173 (ICCB-Longwood Screening Facility, Harvard Medical School, 2010):
# About 4,300 (8.3%) of roughly 52,000 compounds were called active. Rule as the data show it: active = survival mostly below about 52% (no sharp cut-off); inactive = mostly above about 56%. This is one part of the list.
# Test system: DeltatarO mutant
# Test: S. aureus survival, RN4220 and DeltatarO strains – OD600, teichoic acid synthesis inhibitors, primary screen (AID 463173)
# Conditions: S. aureus RN4220 wild type/DeltatarO growth, OD600, 18 h, stronger effect = lower value, screened at 18.75 µg/mL (by protocol)
row,SMILES,survival
1,Cc1ccc(-n2c(-c3cccc(C)c3)nc3c(cnn3-c3ccccc3)c2=O)cc1,active: 19%
2,O=S(=O)(c1ccc(F)cc1)N1CCCCC1,inactive: 86%
3,Cn1c(=O)oc2cc(S(=O)(=O)N3CCCC(C(=O)N4CCN(c5ccc(F)cc5)CC4)C3)ccc21 (centres undefined),inactive: 92%
4,CC(Oc1ccc(Br)cc1)C(=O)N(Cc1nc(-c2ccccc2)no1)C(C)C (centres undefined),inactive: 97%
5,O=C(NCCCN1CCN(c2ccccc2)CC1)c1ccc2nc(CCc3ccccc3)oc2c1,inactive: 73%
6,CCc1nn2c(=O)cc(COC(=O)c3ccccc3NC(=O)c3ccc(C(C)(C)C)cc3)nc2s1,inactive: 91%
7,O=C(O)C1CSC(c2cccs2)N1 (centres undefined),inactive: 83%
8,CN(CCCN1C(=O)c2ccccc2C1=O)CCCN1C(=O)c2ccccc2C1=O,inactive: 93%
9,Cc1cccc(N(CC(=O)NCCSc2ccc(Cl)cc2)S(C)(=O)=O)c1C,active: 38%
10,Cc1ccc(-c2c(C(=O)N(C)Cc3ccccc3)oc(=O)c3ccccc23)cc1,active: 24%
11,COc1ccc(CSC(=N)N)cc1Cl,inactive: 97%
12,Cc1nn2c(=O)cc(COC(=O)C(c3ccccc3)c3ccccc3)nc2s1,inactive: 90%
13,COc1ccc(CNC(=O)c2cc3c(=O)[nH]c4ccccc4c3n2C)c(OC)c1,inactive: 68%
14,Cc1ccc2c(c1)N(C(=O)N1CCC(C(=O)NCc3cccs3)CC1)CC(C)O2 (centres undefined),inactive: 91%
15,COc1ccc(Cl)cc1NC(=O)NCc1noc2ccccc12,inactive: 35%
16,CC(NC(=O)CN1C(=O)COc2ccc(Cl)cc21)c1ccccc1 (centres undefined),inactive: 119%
17,COc1ccc(CCNC(=O)CCCn2c(=O)c3ccccc3n(CC(=O)Nc3ccc(C)cc3Cl)c2=O)cc1OC,inactive: 87%
18,CCc1ccc2[nH]c(=O)c(CNCCO)cc2c1,inactive: 78%
19,COc1cccc(-c2cn3c(n2)sc2cc(C(=O)NCCC4=CCCCC4)ccc23)c1,inactive: 52%
20,O=C(CSc1oc(-c2ccc(F)cc2)nc1S(=O)(=O)c1ccc(Cl)cc1)c1ccccc1,active: 45%
21,Cc1cccc(CCNC(=O)c2nn(C)c3c2CSc2ccccc2-3)c1,inactive: 77%
22,O=C(c1ccc2c(c1)N(Cc1cccc(Cl)c1)C(=O)c1ccccc1S2(=O)=O)N1CCCCCC1,inactive: 69%
23,Cc1ccc(NC(=O)C2CCN(C(=O)c3cnn(-c4ccccc4)c3-n3cccc3)CC2)cc1C,inactive: 65%

row,SMILES,survival
1,O=C(NCC(c1cccnc1)N1CCc2ccccc2C1)C(=O)Nc1ccc(F)cc1F (centres undefined),inactive: 107%
2,Cc1cccc(-c2nc(C)c(CCNC(=O)c3cccs3)s2)c1,inactive: 84%
3,O=C(CN1CCCN(Cc2cccc(F)c2)S1(=O)=O)Nc1ccc2c(c1)OCCO2,inactive: 80%
4,CC(C)c1ccc(NC(=O)CCNS(=O)(=O)c2ccc3c(c2)oc(=O)n3C)cc1,inactive: 88%
5,C=C(C)Cn1c(SCC(=O)Nc2cccc(C)c2)nc2sc3c(c2c1=O)CCCC3,inactive: 132%
6,O=C(CCS(=O)(=O)c1nc(-c2ccc3c(c2)OCO3)cc(C(F)(F)F)n1)Nc1ccc(F)cc1F,inactive: 79%
7,COC(=O)c1nnn(-c2ccc(Cl)cc2)c1C(=O)OC,inactive: 129%
8,Cc1ccc(-n2ncc(C(=O)N3CCN(C(=O)c4ccco4)CC3)c2C2CCN(C(=O)OC(C)(C)C)CC2)cc1,inactive: 55%
9,CCS(=O)(=O)c1ncc(Cl)c(C(=O)Nc2c(C(=O)c3ccc(C)cc3)oc3ccccc23)n1,active: 50%
10,CCN(CC)C(=O)C1CCN(c2cc(C)nc3c(-c4ccc(OC)c(OC)c4)c(C)nn23)CC1,inactive: 79%
11,Cn1c(C(=O)N2CCCC(C(=O)N3CCN(c4ccccc4)CC3)C2)cc2sccc21 (centres undefined),inactive: 89%
12,CCc1ccc(NC(=O)CSc2cn(CC(=O)N3CCOCC3)c3ccccc23)cc1,inactive: 86%
13,CCCCNC(=O)CSC1=Nc2ccccc2C2=NC(CCC(=O)NCc3ccccc3OC)C(=O)N12 (centres undefined),active: 0%
14,Clc1ncnc2sc3c(c12)CCCC3,inactive: 86%
15,CCOc1ccc(CN(C(=O)c2cc(=O)c3cc(Cl)ccc3o2)C2CCS(=O)(=O)C2)cc1 (centres undefined),inactive: 104%
16,CCCCOC(=O)c1c(C)oc2ccc(NS(=O)(=O)c3ccc(F)cc3C)cc12,active: 10%
17,CCc1ccc(CNc2ncnc3onc(-c4ccc(Cl)cc4)c23)cc1,inactive: 50%
18,COc1ccc(-c2cc(C(F)(F)F)n3nc(C(=O)Nc4sc5c(c4C(=O)OC(C)C)CCCC5)cc3n2)cc1OC,inactive: 138%
19,COc1ccc(N2CCN(C(CNC(=O)c3cccc(OC)c3)c3cccnc3)CC2)cc1 (centres undefined),inactive: 71%
20,Cc1cccc(OC(=O)c2nc(SCc3ccccc3F)ncc2Cl)c1,inactive: 98%
21,Cc1ccc(Nc2nc3c(S(=O)(=O)c4ccccc4)nnn3c3ccc(Cl)cc23)c(C)c1,inactive: 143%
22,Cc1nc2ccn(Cc3cccs3)c(=O)c2cc1C(=O)NCc1ccc(Cl)cc1,inactive: 49%
23,COc1cc2nc(Nc3ccc(C)c(C)c3)nc(N)c2cc1OC,inactive: 76%

row,SMILES,survival
1,CC(CC(=O)NCc1ccc(Cl)cc1Cl)CC1=NS(=O)(=O)c2ccccc2N1 (centres undefined),inactive: 117%
2,COc1ccc(CCNC(=O)c2cc(=O)c3c(C)cc(C)cc3o2)cc1OC,inactive: 57%
3,COC(=O)c1ccc(NC(=O)C(=O)NCCc2sc3nc(-c4ccc(OC)cc4)nn3c2C)cc1,inactive: 83%
4,O=C(CCn1c(=O)c2cccn2c2cccnc21)NCc1ccc(Cl)cc1,inactive: 77%
5,COc1ccccc1NC(=O)C1=C(C)Nc2c(C(=O)Nc3cccc(C)c3)cnn2C1c1ccccc1C (centres undefined),inactive: 89%
6,COc1cc2c(cc1OC)n(CC(=O)Nc1ccccc1)c(=O)n1nc(-c3ccccc3)nc21,inactive: 67%
7,Cc1ccc(/C=C/c2nc3ccccc3n2S(=O)(=O)c2cccc(Cl)c2)cc1,inactive: 77%
8,O=C1COc2cc(S(=O)(=O)CCC(=O)N3CCN(c4cccc(Cl)c4)CC3)c(Cl)cc2N1,inactive: 66%
9,CCC(C)NC(=O)c1sc2nc(C)c(C(=O)Nc3ccc(C)cc3C)c(-c3ccc(Cl)cc3)c2c1N (centres undefined),inactive: 64%
10,CCOc1ccc(CNC(=O)Cn2nc(C)c3nn(-c4ccc(Cl)cc4)c(C)c3c2=O)cc1OC,inactive: 92%
11,CCN(CC)C(=O)C1CCN(S(C)(=O)=O)CC1,inactive: 103%
12,COc1ccc(CNCc2c(C(=O)O)c(C)n(Cc3ccc(Cl)cc3)c2C)c(OC)c1,inactive: 76%
13,Cc1ccc2c(c1)c1c(c(=O)n(-c3ccccc3C)c(=O)n1CC(=O)NCCC1=CCCCC1)n2C,inactive: 71%
14,CC(=O)c1cc(-c2ccc(F)cc2)n(CCC(=O)Nc2nc3c(C)cccc3s2)c1C,inactive: 77%
15,Cc1nn(CC(=O)NCCc2ccccc2Cl)c(=O)c2nn(-c3ccccc3)c(C)c12,inactive: 118%
16,O=S(=O)(c1ccccc1)N1CCC(c2ccncc2)CC1,inactive: 92%
17,CSc1nsc(NC(=O)Nc2ccccc2C(F)(F)F)n1,active: 13%
18,C(=Nc1ccccc1)c1ccc(N2CCOCC2)cc1,inactive: 102%
19,O=C(Nc1nc2ccccc2s1)NC1CCCCC1,inactive: 66%
20,O=C(c1ccc(S(=O)(=O)N2CCOCC2)cc1)n1nnc2ccccc21,inactive: 119%
21,Cc1ccc(CNS(=O)(=O)c2c(C)nc3scc(C)n3c2=O)cc1,inactive: 141%
22,CC(C)(C)c1ccc(S(=O)(=O)NCc2nc3cccnc3n2Cc2ccccc2Cl)cc1,inactive: 55%
23,Cc1ccc(-c2cc(C(=O)Nc3c(C(=O)c4ccccc4)oc4ccccc34)no2)cc1F,inactive: 49%

row,SMILES,survival
1,COc1ccccc1/C=N/NC(=O)c1ccc(=O)n(C)c1,inactive: 98%
2,Cc1ccc(Cc2nc3ccccc3nc2SCC(=O)Nc2cccc(C(F)(F)F)c2)cc1,inactive: 67%
3,O=C(CN1CCSc2ccccc21)N1CCN(c2cccc(Cl)c2)CC1,inactive: 115%
4,COC(=O)c1cnn(-c2ccc(C(=O)Nc3ccc(C(C)=O)cc3)cc2)c1N,inactive: 63%
5,O=C(CNCC1CCCO1)N1CCCC1 (centres undefined),inactive: 95%
6,Cc1ccc(-n2ncc3c(NC4CCCCC4)ncnc32)cc1,inactive: 88%
7,NC(=O)c1ccc(N2CCCCC2)c(N2C(=O)C3CC=CCC3C2=O)c1 (centres undefined),inactive: 94%
8,CCCSCCCNC(=O)c1ccc2c(c1)nc1n2CCCCC1,inactive: 84%
9,CC(C)c1cc(-c2nc(-c3ccccc3)no2)n[nH]1,inactive: 94%
10,CN(CC(=O)Nc1ccccc1Cl)S(=O)(=O)c1ccc(C(=O)N2CCOCC2)s1,inactive: 102%
11,COc1ccc(S(=O)(=O)N2CCN(Cc3ccc4c(c3)OCO4)CC2)cc1OC,active: 43%
12,Cc1nc(N2CCCC2)c2c(C(=O)N3CCN(c4cccc(C)c4C)CC3)c(C)oc2n1,inactive: 94%
13,CCC(=O)Nc1ccc2nc(SCc3ccc(C)cc3)sc2c1,inactive: 84%
14,CC(C)c1ccccc1NC(=O)CN1C(=O)c2cccc3cccc1c23,active: 40%
15,O=C(CN1CCCCC1)N1CCc2ccccc21,inactive: 70%
16,O=C(CSc1nc(-c2ccccc2)[nH]c1-c1ccccc1)Nc1ccc2c(c1)OCCO2,inactive: 59%
17,CCOc1cc(C2CC(=O)Nc3nc(SCc4ccccc4)[nH]c(=O)c32)ccc1O (centres undefined),inactive: 105%
18,CCc1ccc2oc(-c3ccc(NC(=O)c4cc(OC)c(OC)c(OC)c4)cc3)nc2c1,inactive: 57%
19,CCOC(=O)c1ccc(N2C(=O)c3[nH]nc(-c4ccc(OCC)cc4)c3C2c2ccc(OC)cc2OC)cc1 (centres undefined),inactive: 106%
20,CCc1ccc(CNC(=O)CCCN2C(=O)c3cccnc3Oc3ccc(Cl)cc32)cc1,inactive: 94%
